In all, about 81,000 sequences were measured (“one-hybrid fitness for binding parS DNA”: median about -0.17, highest 2% from about 0.51 on). Some of the results follow.
B1: Caulobacter ParB omega fusion; a variant is named by its letters at X, in order, B8GW30 (parent)
chain: MESVVVGEPGMSEGRRGLGRGLSALLGEVDAAPAQAPGEQLGGSREAPIEILQRNPDQPRRTFREEDLEDLSNSIREKGVLQPILVRPSPDTAGEYQIVAGERAWRAAQRAGLKTVPIMVRELDDLAVLEIGIIENVQRADLNVLEEALSYKVLMEKFERTQENIAQTIGKSXSHVANXMRLLXLPDEVQSYLVSGELTAXHARAIAAAADPVALAKQIIEGGLSVRETEALARKAPNLSAGKSKGGRPPRVKDTDTQALESDLSSVLGLDVSIDHRGSTGTLTITYATLEQLDDLCNRLTRGI

Variants of: B1
Assay: one-hybrid fitness for binding parS DNA (scaled: cognate 1, non-cognate 0); higher = stronger binding
Conditions: with parS DNA site
Outline: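 On M9-minus-histidine containing 0.1 mM IPTG and 5 mM 3-AT, E. coli USO cells with a HIS3 reporter, site 19 bp from the promoter, grew 48 hours at 37°C to select Caulobacter ParB libraries randomised at four specificity codons. Plasmids from before and after were Illumina-sequenced, with three replicate libraries pooled and variants under 10 reads left out. Fitness is the log change in variant-to-wild-type read ratio, rescaled against cognate and non-cognate.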

Point of comparison: RMLS, “one-hybrid fitness for binding parS DNA” value 1.04. Against it:
- MDIT — lower, ≤ 0.2
- IGRS — lower, ≤ 0.2
- ARCV — lower, ≤ 0.2
- PVTE — lower, ≤ 0.2
- WGCR — lower, ≤ 0.2
- IPLV — lower, ≤ 0.2
- DPVQ — lower, ≤ 0.2
- RTWE — lower, ≤ 0.2
- VNHF — lower, ≤ 0.2
- DEST — lower, ≤ 0.2
- CFNS — lower, ≤ 0.2
- QIYF — lower, ≤ 0.2
- VSDL — lower, ≤ 0.2
- WHLS — lower, ≤ 0.2
- EFSR — lower, ≤ 0.2
- RNFI — lower, ≤ 0.2
- RLRK — lower, ≤ 0.2
- WDRC — lower, ≤ 0.2
- QPST — lower, ≤ 0.2
- HWST — lower, ≤ 0.2
- PPGV — lower, ≤ 0.2
- FKPN — lower, ≤ 0.2
- YLVI — lower, ≤ 0.2
- WATN — lower, ≤ 0.2
- GAPK — lower, ≤ 0.2
- SYPW — lower, ≤ 0.2
- TFVV — lower, ≤ 0.2
- ADQP — lower, ≤ 0.2
- WGGL — lower, ≤ 0.2
- KSPR — lower, ≤ 0.2
- RKCF — lower, ≤ 0.2
- DVLV — lower, ≤ 0.2
- IIRA — lower, ≤ 0.2
- YWPF — lower, ≤ 0.2
- YMMC — lower, ≤ 0.2
- TGQY — lower, ≤ 0.2
- ICIS — lower, ≤ 0.2
- KVSS — lower, ≤ 0.2
- NNTM — lower, ≤ 0.2
- HDLK — lower, ≤ 0.2
- WQVL — lower, ≤ 0.2
- LPLI — lower, ≤ 0.2
- VDST — lower, ≤ 0.2
- MAIW — lower, ≤ 0.2
- QSYL — lower, ≤ 0.2
- PTLT — lower, ≤ 0.2
- IYPL — lower, ≤ 0.2
- SKNQ — lower, ≤ 0.2
- VEVP — lower, ≤ 0.2
- SFEM — lower, ≤ 0.2
- RAEK — lower, ≤ 0.2
- MCEG — lower, ≤ 0.2
- TCYE — lower, ≤ 0.2
- KELQ — lower, 0.213
- HNLK — lower, ≤ 0.2
- RLCH — lower, 0.22
- DSPC — lower, ≤ 0.2
- MAKK — lower, ≤ 0.2
- RFTE — lower, ≤ 0.2
- KAQT — lower, ≤ 0.2
- IGVC — lower, ≤ 0.2
- AING — lower, ≤ 0.2
- RNPP — lower, ≤ 0.2
- KKGA — lower, ≤ 0.2
- MLSE — lower, ≤ 0.2
- ETMC — lower, ≤ 0.2
- WPVS — lower, ≤ 0.2
- DIET — lower, ≤ 0.2
- LQTR — lower, ≤ 0.2
- FSFS — lower, ≤ 0.2
- KKKN — lower, ≤ 0.2
- TLHK — lower, ≤ 0.2
- RWSC — lower, 0.788
- QITG — lower, ≤ 0.2
- YYIC — lower, ≤ 0.2
- KLPL — lower, ≤ 0.2
- MAMW — lower, ≤ 0.2
- IRLT — lower, ≤ 0.2
- SMHC — lower, ≤ 0.2
- YALH — lower, ≤ 0.2
- DDDT — lower, ≤ 0.2
- RYNN — lower, 0.364
- SMAT — lower, ≤ 0.2
- NVCN — lower, ≤ 0.2
- ATMM — lower, ≤ 0.2
- MLVV — lower, ≤ 0.2
- RTVT — lower, 0.879
- LNTD — lower, ≤ 0.2
- PYPE — lower, ≤ 0.2
- QHND — lower, ≤ 0.2
- TWTA — lower, ≤ 0.2
- QLPV — lower, ≤ 0.2
- TMLL — lower, ≤ 0.2
- HFKR — lower, ≤ 0.2
- SSLR — lower, ≤ 0.2
- VLGV — lower, ≤ 0.2
- NHDV — lower, ≤ 0.2
- CCQC — lower, ≤ 0.2
- RTKC — lower, 0.813
- HVQV — lower, ≤ 0.2
- RCTV — lower, ≤ 0.2
- DRMV — lower, ≤ 0.2
- QQMQ — lower, ≤ 0.2
- IHYS — lower, ≤ 0.2
- RCLA — lower, 0.609
- MKRL — lower, ≤ 0.2
- SPYT — lower, ≤ 0.2
- TTVK — lower, ≤ 0.2
- PSMI — lower, ≤ 0.2
- YRQR — lower, ≤ 0.2
- EEKY — lower, ≤ 0.2
- RGNC — lower, 0.716
- MTCY — lower, ≤ 0.2
- ISIY — lower, ≤ 0.2
- ADKW — lower, ≤ 0.2
- SQGT — lower, ≤ 0.2
- SRSH — lower, ≤ 0.2
- QVMI — lower, ≤ 0.2
- LWFV — lower, ≤ 0.2
- ASNA — lower, ≤ 0.2
- HACW — lower, ≤ 0.2
- PEYS — lower, ≤ 0.2
- YHTA — lower, ≤ 0.2
- YHPS — lower, ≤ 0.2
- RIDL — lower, ≤ 0.2
- HCDR — lower, ≤ 0.2
- PLSQ — lower, ≤ 0.2
- LVKR — lower, ≤ 0.2
- VRWW — lower, ≤ 0.2
- AFVK — lower, ≤ 0.2
- PVWM — lower, ≤ 0.2
- VVKE — lower, ≤ 0.2
- VHHT — lower, ≤ 0.2
- CSNV — lower, ≤ 0.2
- CLHY — lower, ≤ 0.2
- QDMC — lower, ≤ 0.2
- ATPD — lower, ≤ 0.2
- KVLG — lower, ≤ 0.2
- YPKL — lower, ≤ 0.2
- YFRT — lower, ≤ 0.2
- GSGR — lower, ≤ 0.2
- VFDW — lower, ≤ 0.2
- DQRE — lower, ≤ 0.2
- GNKC — lower, ≤ 0.2
- HRYN — lower, ≤ 0.2
- DTPN — lower, ≤ 0.2
- CNLC — lower, ≤ 0.2
- HLLA — lower, ≤ 0.2
- QRLY — lower, ≤ 0.2
- RPKT — lower, ≤ 0.2
- PPRP — lower, ≤ 0.2
- ASLR — lower, ≤ 0.2
- MNSR — lower, ≤ 0.2
- GTRL — lower, ≤ 0.2
- KGLR — lower, ≤ 0.2
- YNQY — lower, ≤ 0.2
- EKAF — lower, ≤ 0.2
- IYTL — lower, ≤ 0.2
- DLWV — lower, ≤ 0.2
- TRPI — lower, ≤ 0.2
- VVLA — lower, ≤ 0.2
- EQAC — lower, ≤ 0.2
- DCKS — lower, ≤ 0.2
- SPMG — lower, ≤ 0.2
- YRQY — lower, ≤ 0.2
- QIAA — lower, ≤ 0.2
- YHQA — lower, ≤ 0.2
- LTYV — lower, ≤ 0.2
- LRRG — lower, ≤ 0.2
- KVVR — lower, ≤ 0.2
- PDMM — lower, ≤ 0.2
- PCMQ — lower, 0.408
- KEHW — lower, ≤ 0.2
- EILR — lower, ≤ 0.2
- VKIT — lower, ≤ 0.2
- TPCF — lower, ≤ 0.2
- CYAG — lower, ≤ 0.2
- QRQK — lower, ≤ 0.2
- GYWN — lower, ≤ 0.2
- NTIM — lower, ≤ 0.2
- PAYR — lower, ≤ 0.2
- VTKW — lower, ≤ 0.2
- QWTR — lower, ≤ 0.2
- CVRR — lower, ≤ 0.2
- STLK — lower, ≤ 0.2
- DEGS — lower, ≤ 0.2
- IRTN — lower, ≤ 0.2
- LKAT — lower, ≤ 0.2
- KQYS — lower, ≤ 0.2
- HIVW — lower, ≤ 0.2
- ITYV — lower, ≤ 0.2
- AMST — lower, ≤ 0.2
- VDWC — lower, ≤ 0.2
- QSHN — lower, ≤ 0.2

From a collection of fitness landscapes (doi:10.1016/j.celrep.2020.107928)
